Measured values from publication PMC8387021.
Results are given in words; binding and its absence hold for the method and conditions named. For some assays here: In cells and extracts the contact can be indirect. Some entries that bind do so weakly or less than the wild type. For some assays here: Sequences can lack the tags named with a protein.

Amino acid sequences for entries named in this document (tags omitted). A change or cut given only in a name is not applied to a line headed by its entry. Residues count along the entry.
fMLL ΔFP (Q03164, residues 1-1395): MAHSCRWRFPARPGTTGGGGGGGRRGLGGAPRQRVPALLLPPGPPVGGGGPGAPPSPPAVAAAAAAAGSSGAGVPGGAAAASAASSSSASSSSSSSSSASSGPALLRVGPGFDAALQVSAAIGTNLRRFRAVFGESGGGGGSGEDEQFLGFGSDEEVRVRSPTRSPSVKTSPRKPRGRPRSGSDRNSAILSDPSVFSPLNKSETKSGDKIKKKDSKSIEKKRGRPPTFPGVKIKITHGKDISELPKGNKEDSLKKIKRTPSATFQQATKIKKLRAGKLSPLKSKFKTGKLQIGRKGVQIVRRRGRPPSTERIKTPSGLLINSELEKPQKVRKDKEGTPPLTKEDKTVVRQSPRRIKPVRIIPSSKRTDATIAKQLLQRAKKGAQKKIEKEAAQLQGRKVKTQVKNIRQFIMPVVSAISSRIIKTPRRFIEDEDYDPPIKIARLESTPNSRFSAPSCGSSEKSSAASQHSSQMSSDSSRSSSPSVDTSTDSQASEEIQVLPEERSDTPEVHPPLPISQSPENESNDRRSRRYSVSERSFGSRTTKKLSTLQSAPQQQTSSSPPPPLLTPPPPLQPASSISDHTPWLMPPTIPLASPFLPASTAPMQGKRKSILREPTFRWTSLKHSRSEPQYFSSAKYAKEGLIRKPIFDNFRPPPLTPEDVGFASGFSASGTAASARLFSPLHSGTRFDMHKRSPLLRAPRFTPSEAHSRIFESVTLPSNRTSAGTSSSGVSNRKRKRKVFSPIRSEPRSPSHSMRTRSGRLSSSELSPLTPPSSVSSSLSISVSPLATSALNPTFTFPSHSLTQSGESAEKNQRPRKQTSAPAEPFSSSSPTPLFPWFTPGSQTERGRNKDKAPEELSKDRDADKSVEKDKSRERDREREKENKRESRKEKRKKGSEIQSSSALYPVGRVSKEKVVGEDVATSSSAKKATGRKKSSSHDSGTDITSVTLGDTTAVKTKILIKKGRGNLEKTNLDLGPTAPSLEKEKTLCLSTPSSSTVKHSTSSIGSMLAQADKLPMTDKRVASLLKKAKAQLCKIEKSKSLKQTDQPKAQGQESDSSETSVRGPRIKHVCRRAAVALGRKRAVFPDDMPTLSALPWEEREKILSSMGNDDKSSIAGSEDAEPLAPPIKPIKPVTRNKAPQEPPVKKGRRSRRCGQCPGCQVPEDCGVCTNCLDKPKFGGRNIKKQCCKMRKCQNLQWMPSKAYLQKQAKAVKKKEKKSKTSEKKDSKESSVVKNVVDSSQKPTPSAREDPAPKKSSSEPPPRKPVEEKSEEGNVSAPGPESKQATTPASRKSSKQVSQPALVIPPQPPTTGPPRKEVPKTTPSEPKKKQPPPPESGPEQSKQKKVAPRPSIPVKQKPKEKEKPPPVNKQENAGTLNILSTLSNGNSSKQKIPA
fMLL 869–1124 (Q03164, residues 869-1124): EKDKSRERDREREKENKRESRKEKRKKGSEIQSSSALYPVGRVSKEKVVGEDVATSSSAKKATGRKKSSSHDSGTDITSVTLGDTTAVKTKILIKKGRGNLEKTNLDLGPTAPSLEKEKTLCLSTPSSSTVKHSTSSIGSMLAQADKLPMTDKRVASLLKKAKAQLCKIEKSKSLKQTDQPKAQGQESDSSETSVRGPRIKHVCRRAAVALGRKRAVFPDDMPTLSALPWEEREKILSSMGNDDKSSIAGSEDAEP
UniProt Q8WYH8: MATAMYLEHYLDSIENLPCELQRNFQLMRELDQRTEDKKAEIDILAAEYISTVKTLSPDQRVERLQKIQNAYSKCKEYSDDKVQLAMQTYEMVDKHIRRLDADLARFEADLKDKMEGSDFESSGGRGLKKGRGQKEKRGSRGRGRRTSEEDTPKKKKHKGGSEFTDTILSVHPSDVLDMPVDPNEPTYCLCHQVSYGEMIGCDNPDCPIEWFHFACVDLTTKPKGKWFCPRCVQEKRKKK

B1: Xpress-tagged AF4 (protein, UniProt P51825 1-1210)
chain: MAAQSSLYNDDRNLLRIREKERRNQEAHQEKEAFPEKIPLFGEPYKTAKGDELSSRIQNMLGNYEEVKEFLSTKSHTHRLDASENRLGKPKYPLIPDKGSSIPSSSFHTSVHHQSIHTPASGPLSVGNISHNPKMAQPRTEPMPSLHAKSCGPPDSQHLTQDRLGQEGFGSSHHKKGDRRADGDHCASVTDSAPERELSPLISLPSPVPPLSPIHSNQQTLPRTQGSSKVHGSSNNSKGYCPAKSPKDLAVKVHDKETPQDSLVAPAQPPSQTFPPPSLPSKSVAMQQKPTAYVRPMDGQDQAPSESPELKPLPEDYRQQTFEKTDLKVPAKAKLTKLKMPSQSVEQTYSNEVHCVEEILKEMTHSWPPPLTAIHTPSTAEPSKFPFPTKDSQHVSSVTQNQKQYDTSSKTHSNSQQGTSSMLEDDLQLSDSEDSDSEQTPEKPPSSSAPPSAPQSLPEPVASAHSSSAESESTSDSDSSSDSESESSSSDSEENEPLETPAPEPEPPTTNKWQLDNWLTKVSQPAAPPEGPRSTEPPRRHPESKGSSDSATSQEHSESKDPPPKSSSKAPRAPPEAPHPGKRSCQKSPAQQEPPQRQTVGTKQPKKPVKASARAGSRTSLQGEREPGLLPYGSRDQTSKDKPKVKTKGRPRAAASNEPKPAVPPSSEKKKHKSSLPAPSKALSGPEPAKDNVEDRTPEHFALVPLTESQGPPHSGSGSRTSGCRQAVVVQEDSRKDRLPLPLRDTKLLSPLRDTPPPQSLMVKITLDLLSRIPQPPGKGSRQRKAEDKQPPAGKKHSSEKRSSDSSSKLAKKRKGEAERDCDNKKIRLEKEIKSQSSSSSSSHKESSKTKPSRPSSQSSKKEMLPPPPVSSSSQKPAKPALKRSRREADTCGQDPPKSASSTKSNHKDSSIPKQRRVEGKGSRSSSEHKGSSGDTANPFPVPSLPNGNSKPGKPQVKFDKQQADLHMREAKKMKQKAELMTDRVGKAFKYLEAVLSFIECGIATESESQSSKSAYSVYSETVDLIKFIMSLKSFSDATAPTQEKIFAVLCMRCQSILNMAMFRCKKDIAIKYSRTLNKHFESSSKVAQAPSPCIASTGTPSPLSPMPSPASSVGSQSSAGSVGSSGVAATISTPVTIQNMTSSYVTITSHVLTAFDLWEQAEALTRKNKEFFARLSTNVCTLALNSSLVDLVHYTRQGFQQLQELTKTP
B2: Xpress-tagged PHF16 (protein, UniProt Q92613 1-823)
chain: MKRHRPVSSSDSSDESPSTSFTSGSMYRIKSKIPNEHKKPAEVFRKDLISAMKLPDSHHINPDSYYLFADTWKEEWEKGVQVPASPDTVPQPSLRIIAEKVKDVLFIRPRKYIHCSSPDTTEPGYINIMELAASVCRYDLDDMDIFWLQELNEDLAEMGCGPVDENLMEKTVEVLERHCHENMNHAIETEEGLGIEYDEDVICDVCRSPDSEEGNDMVFCDKCNVCVHQACYGILKVPEGSWLCRSCVLGIYPQCVLCPKKGGALKTTKTGTKWAHVSCALWIPEVSIACPERMEPITKISHIPPSRWALVCNLCKLKTGACIQCSIKSCITAFHVTCAFEHGLEMKTILDEGDEVKFKSYCLKHSQNRQKLGEAEYPHHRAKEQSQAKSEKTSLRAQKLRELEEEFYSLVRVEDVAAELGMPTLAVDFIYNYWKLKRKSNFNKPLFPPKEDEENGLVQPKEESIHTRMRMFMHLRQDLERVRNLCYMISRREKLKLSHNKIQEQIFGLQVQLLNQEIDAGLPLTNALENSLFYPPPRITLKLKMPKSTPEDHRNSSTETDQQPHSPDSSSSVHSIRNMQVPQESLEMRTKSYPRYPLESKNNRLLASLSHSRSEAKESSPAWRTPSSECYHGQSLGKPLVLQAALHGQSSIGNGKSQPNSKFAKSNGLEGSWSGNVTQKDSSSEMFCDQEPVFSPHLVSQGSFRKSTVEHFSRSFKETTNRWVKNTEDLQCYVKPTKNMSPKEQFWGRQVLRRSAGRAPYQENDGYCPDLELSDSEAESDGNKEKVRVRKDSSDRENPPHDSRRDCHGKSKTHPLSHSSMQR
B3: AF4 (protein, UniProt P51825 1-1210)
chain: B1 chain
B4: ENL (protein, UniProt Q03111 1-559)
chain: MDNQCTVQVRLELGHRAQLRKKPTTEGFTHDWMVFVRGPEQCDIQHFVEKVVFWLHDSFPKPRRVCKEPPYKVEESGYAGFIMPIEVHFKNKEEPRKVCFTYDLFLNLEGNPPVNHLRCEKLTFNNPTTEFRYKLLRAGGVMVMPEGADTVSRPSPDYPMLPTIPLSAFSDPKKTKPSHGSKDANKESSKTSKPHKVTKEHRERPRKDSESKSSSKELEREQAKSSKDTSRKLGEGRLPKEEKAPPPKAAFKEPKMALKETKLESTSPKGGPPPPPPPPPRASSKRPATADSPKPSAKKQKKSSSKGSRSAPGTSPRTSSSSSFSDKKPAKDKSSTRGEKVKAESEPREAKKALEVEESNSEDEASFKSESAQSSPSNSSSSSDSSSDSDFEPSQNHSQGPLRSMVEDLQSEESDEDDSSSGEEAAGKTNPGRDSRLSFSDSESDNSADSSLPSREPPPPQKPPPPNSKVSGRRSPESCSKPEKILKKGTYDKAYTDELVELHRRLMALRERNVLQQIVNLIEETGHFNVTNTTFDFDLFSLDETTVRKLQSCLEAVAT

How the values were obtained:
[1] = target: fMLL 869–1124 (UniProt Q03164); assay: co-IP; chromatin fraction of HEK293T cells expressing fMLL 869-1124 with each Xpress-tagged HBO1 complex component singly
[2] = target: fMLL 869–1124 (UniProt Q03164); assay: co-IP; chromatin fraction of HEK293T cells expressing fMLL 869-1124 with all HBO1 complex components co-expressed (ING5 replaced by its mutants where told)
[3] = target: fGAL4-EAF1 (human) (UniProt Q96JC9); assay: co-IP; chromatin fraction of HEK293TL cells transiently expressing FLAG-tagged GAL4 fusion proteins with or without xAF4 and HA-tagged constructs; endogenous proteins by specific antibodies, exogenous by FLAG, HA or Xpress
[4] = target: fMLL ΔFP (UniProt Q03164); assay: co-IP; fanChIP: MNase-treated chromatin fraction of HEK293T cells transiently expressing FLAG-tagged MLL or GAL4 constructs (with xAF4/xAF5Q31 where told); anti-FLAG beads, western blot
[5] = target: fGAL4-MLL 869/1124 (UniProt Q03164); assay: as above
[6] = target: fGAL4-EAF1 (human) (UniProt Q96JC9); assay: ChIP-qPCR recruitment to a GAL4-responsive promoter; HEK293TL cells with a GAL4-responsive reporter, FLAG-tagged GAL4 fusion proteins as tether; qPCR probe near the UAS
[7] = target: fGAL4-EAF1 (human) (UniProt Q96JC9); assay: co-IP; chromatin fraction of HEK293TL cells transiently expressing FLAG-tagged GAL4 fusion proteins with or without xAF4 and HA-tagged constructs; endogenous proteins by specific antibodies, exogenous by FLAG, HA or Xpress; remark: listed apart in the source

Row | Molecule | binding [1] | binding [2] | binding [6] | binding [7] | other results
1 | Xpress-tagged ING5 (from UniProt Q8WYH8 1-240) | binds weakly | binds |  |  | 
2 | HA-tagged EAF1 (from UniProt Q96JC9 1-268) |  |  |  |  | binding [3]: binds
3 | B1 |  |  |  |  | binding [4]: binds; binding [5]: no binding
4 | B2 | binds weakly | binds |  |  | 
5 | B3 |  |  | no binding | no binding | 
6 | B4 |  |  | no binding | no binding | 
